Some of the results follow. The full chains were built here from the parent and the listed change. Values near 0.05 are background.
B1: TEV protease; numbered along this chain (parent)
chain: MGESLFKGPRDYNPISSSICHLTNESDGHTTSLYGIGFGPFIITNKHLFRRNNGTLVVQSLHGVFKVKDTTTLQQHLVDGRDMIIIRMPKDFPPFPQKLKFREPQREERICLVTTNFQTKSMSSMVSDTSCTFPSGDGIFWKHWIQTKDGQCGSPLVSTRDGFIVGIHSASNFTNTNNYFTSVPKNFMELLTNQEAQQWVSGWRLNADSVLWGGHKVFMVKPEEPFQPVKEATQL

Variants of: B1
Assay: raw area under fraction-flipped curve 0-4 h after induction (AUC4h, not background-subtracted), DNA-recorder readout of cleavage of the substrate (dimensionless); higher = more cleavage of the substrate by the protease variant
Settings: temperature: 34 °C; time window: 0-4 h after rhamnose induction
Method: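 In vivo DNA recorder in E. coli TOP10(DE3) ΔrhaA at 34 °C. Each TEVp single-site mutant (parent TEVp 0) is paired with a single-site variant of the 7-mer TEVs (canonical ENLYFQ|S). The substrate sits between flexible linkers in a Bxb1-sfGFP-TEVs-SsrA fusion, so cleavage stabilises Bxb1 and speeds flipping of a recombination array, read by NGS. The value is the raw area under the fraction-flipped curve over 0-4 h after rhamnose induction (AUC4h), with ≥20 reads per time point. It is not background-subtracted; inactive controls average about 0.047.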
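Further: Bxb1 expression induced with 0.2% (w/v) L-rhamnose at OD600 near 0.5, cultures sampled hourly, flipped fraction per protease–substrate barcode pair counted by paired-end Illumina sequencing.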

| Variant | area with substrate ENAYFQS | area with substrate ENCYFQS | area with substrate ENDYFQS | area with substrate ENGYFQS | area with substrate ENHYFQS | area with substrate ENIYFQS | area with substrate ENKYFQS | area with substrate ENNYFQS | area with substrate ENQYFQS | area with substrate ENSYFQS | area with substrate ENTYFQS | area with substrate ENWYFQS | area with substrate ENYYFQS | area with substrate ENEYFQS | area with substrate ENFYFQS | area with substrate ENRYFQS | area with substrate ENPYFQS | area with substrate ENVYFQS | area with substrate ENMYFQS |
| --- | --- | --- | --- | --- | --- | --- | --- | --- | --- | --- | --- | --- | --- | --- | --- | --- | --- | --- | --- |
| Y179C | 0.0581 | 0.0568 | 0.0606 | 0.071 | 0.0583 | 0.0435 | 0.0613 | 0.0643 | 0.0687 | 0.0576 | 0.0393 | 0.059 | 0.0517 | – | – | – | – | – | – |
| Y179F | 0.0382 | 0.0382 | 0.0331 | 0.0497 | – | – | – | 0.0579 | 0.0555 | 0.0602 | – | – | – | 0.0612 | 0.0589 | 0.0509 | – | – | – |
| S169P | 0.0571 | 0.066 | 0.0623 | 0.038 | 0.0498 | 0.056 | – | 0.05 | 0.0556 | 0.0557 | – | 0.0476 | – | 0.0463 | – | 0.0437 | 0.0529 | 0.0628 | – |
| S169E | 0.0553 | 0.0629 | 0.0599 | 0.0669 | – | – | 0.0433 | 0.0483 | 0.0551 | 0.0519 | – | – | – | 0.0621 | 0.0814 | 0.0667 | 0.0889 | 0.0359 | 0.0578 |
| N193L | 0.0486 | 0.0605 | 0.0612 | – | – | 0.0868 | – | 0.0674 | 0.0504 | – | – | – | – | – | 0.0577 | 0.0701 | – | 0.0642 | – |
| N172G | 0.0481 | – | – | 0.0628 | 0.0729 | – | 0.0573 | – | 0.0623 | – | 0.0696 | – | – | 0.0759 | – | 0.0569 | – | 0.0409 | – |
| N172T | 0.0674 | 0.0905 | 0.0779 | – | – | – | – | 0.0544 | 0.0536 | 0.0623 | 0.0464 | – | – | 0.0457 | – | – | – | – | 0.059 |
| N172I | 0.0212 | 0.097 | – | 0.0648 | 0.0623 | – | 0.0323 | – | 0.0424 | 0.0906 | 0.0502 | – | 0.0555 | – | 0.0612 | – | 0.0618 | 0.0584 | 0.0458 |
| A207G | 0.0694 | – | 0.0703 | 0.062 | 0.0688 | – | 0.0272 | – | 0.0622 | 0.0491 | 0.0662 | – | – | – | – | 0.0663 | – | – | – |
| A207Q | 0.0627 | 0.0555 | – | – | 0.0475 | – | 0.0594 | – | 0.0691 | 0.0692 | – | – | – | 0.0623 | 0.0645 | – | 0.0588 | – | – |
| A207W | 0.0654 | 0.0548 | 0.0799 | – | – | 0.0847 | 0.0551 | – | 0.058 | 0.0554 | 0.0615 | – | 0.0501 | 0.0646 | – | 0.0455 | 0.062 | – | – |
| L156T | 0.0536 | 0.0587 | – | 0.0635 | 0.0559 | 0.0886 | 0.0537 | 0.0588 | 0.0631 | 0.067 | – | 0.0608 | 0.058 | 0.0523 | 0.0394 | 0.0553 | 0.0597 | 0.0725 | 0.0605 |
| A170H | 0.0538 | – | – | 0.0709 | – | – | 0.0593 | – | – | – | – | – | – | 0.0617 | 0.0868 | – | – | – | 0.0793 |
| N177D | 0.0616 | – | 0.0646 | 0.0745 | 0.0661 | – | – | 0.0622 | – | 0.0859 | 0.0715 | 0 | – | 0.0737 | 0.0719 | – | 0.062 | 0.0652 | 0.0509 |
| Q197M | 0.0535 | – | 0.0626 | 0.062 | – | 0.14 | – | – | 0.0096 | 0.0558 | 0.0659 | – | – | 0.0619 | – | – | 0.0644 | 0.086 | 0.092 |
| V157P | 0.0482 | 0.0541 | 0.0485 | 0.0485 | 0.0502 | 0.0582 | – | 0.0471 | 0.0436 | 0.0759 | – | – | – | 0.0803 | – | 0.0495 | 0.0447 | 0.0707 | – |
| T174N | 0.0748 | 0.0773 | – | 0.0744 | 0.0633 | – | – | 0.0571 | 0.0652 | – | – | – | – | – | – | – | 0.0433 | – | – |
| T174Q | 0.0554 | – | 0.0609 | 0.0442 | 0.0582 | – | – | 0.0732 | 0.0552 | 0.0546 | 0.0748 | 0.0076 | – | 0.0702 | – | 0.0443 | 0.0728 | – | 0.0641 |
| V210H | 0.0643 | – | 0.078 | 0.0544 | – | 0.0681 | – | 0.0522 | 0.0535 | – | – | – | – | – | 0.0678 | 0.0399 | – | 0.075 | 0.0739 |
| V210R | 0.0628 | 0.0615 | 0.0647 | – | 0.0848 | 0.126 | – | – | – | 0.0583 | – | – | – | 0.0522 | 0.049 | 0.0506 | – | 0.0516 | 0.0705 |
| L205K | 0.0526 | 0.0629 | – | – | – | 0.0649 | – | 0.0616 | 0.0505 | 0.0801 | 0.066 | – | – | 0.0712 | – | 0.0485 | 0.0681 | – | – |
| T159S | 0.0608 | 0.055 | 0.0387 | 0.0607 | – | 0.0827 | 0.067 | 0.0567 | 0.0657 | 0.0352 | – | 0.0497 | – | 0.0856 | 0.0791 | 0.0612 | – | – | – |
| V183Q | 0.0637 | – | 0.0543 | 0.0614 | 0.0464 | 0.0626 | 0.0396 | – | – | – | 0.0501 | – | – | 0.0554 | 0.0521 | 0.0607 | 0.0768 | 0.064 | 0.047 |
| S154Y | 0.0383 | – | – | 0.0656 | – | – | 0.0582 | – | 0.0563 | 0.0461 | 0.0709 | – | – | 0.0677 | – | 0.0561 | – | 0.0692 | – |
| W212L | 0.0625 | 0.0673 | 0.0597 | 0.0538 | 0.0427 | 0.107 | 0.0384 | 0.0719 | 0.0636 | 0.0577 | 0.0914 | 0.0769 | 0.074 | 0.0664 | 0.0595 | 0.0612 | – | 0.0794 | – |
| W212R | 0.0545 | 0.0558 | 0.0661 | – | 0.0758 | – | 0.0626 | 0.0534 | 0.0595 | 0.0649 | – | – | – | 0.0567 | 0.0595 | 0.0557 | 0.0602 | 0.0512 | 0.0426 |
| W212C | 0.0643 | – | – | 0.0667 | 0.0949 | 0.11 | – | – | 0.0648 | 0.0595 | 0.0773 | – | 0.0556 | – | 0.0615 | 0.0565 | – | 0.0635 | 0.056 |
| W212P | 0.0809 | – | – | 0.0615 | – | – | – | 0.06 | – | 0.0623 | 0.0431 | – | 0.0607 | 0.0555 | 0.0576 | – | – | – | – |
| I167C | 0.0532 | 0.0672 | 0.0588 | 0.0664 | 0.0546 | – | – | – | 0.0585 | 0.0622 | 0.0409 | – | – | 0.057 | 0.0521 | – | 0.0318 | 0.0486 | – |
| D208P | 0.0419 | – | 0.0663 | 0.0615 | 0.0638 | – | 0.0898 | 0.0598 | 0.0598 | 0.061 | – | – | – | 0.0689 | 0.0687 | – | – | – | 0.0301 |

Source: the supplement of paper PMC12217912
